# Reference: PubChem BioAssay AID1508642 (National Center for Advancing Translational Sciences (NCATS), 2021)
# Screen size: about 43,000 compounds; about 200 (0.47%) were called active. About 12% were inconclusive and are not listed. The call rests on the fitted dose curve; in most records, active means well fitted cell-killing curve with a large enough effect; inconclusive means small, poorly fitted or top-dose-only effect, or effect the other way; inactive means flat fitted curve, though single readings scatter. The list shows a part of the results.
# Test: Cell viability qHTS assay in S16 Pmp22-F2sN cells; further: nearly all actives have a fitted effect of over 65% in size
# Conditions: S16 Pmp22-F2sN Schwann cells (luciferase reporters placed in the Pmp22 gene) viability, CellTiter-Glo, 24 h; series mostly up to 57.5 µM; activity change, negative = cytotoxicity: at the top concentration
# In short: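 Rat S16 Schwann reporter line, 24 h treatment with library compounds delivered at 23 nL per well. Cell viability by CellTiter-Glo luminescence.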
# On the % scale 0 is the no-effect control and ±100 the full control effect.
row,Compound,"activity change, negative = cytotoxicity"
1,O=C(NCc1cccc(F)c1)c1ccc(CS(=O)c2ccccc2Cl)o1 (centres undefined),inactive: -6.94%
2,CCOC(=O)N1CCc2c(sc3c2c(=O)n(Cc2ccccc2)c(=O)n3CC(=O)Nc2c(C)cccc2C)C1,inactive: 4.18%
3,Cn1c(=O)c(=O)n(C)c2cc(S(=O)(=O)N3CCN(c4ccccc4F)CC3)ccc21,inactive: -13.8%
4,CCc1ccc(-n2c(=O)c3cccnc3n2CC(=O)NCc2ccc(F)cc2)cc1,inactive: 6.28%
5,COc1cccc(-c2cc(C(F)(F)F)nc(-n3nc(C)c(Br)c3C)n2)c1,inactive: 7.43%
6,Nc1nc(N)c(S(=O)(=O)c2ccccc2)c(Nc2ccc(Br)cc2)n1,inactive: 2.54%
7,COc1ccc(C(=O)NCC(c2cccnc2)N2CCN(c3ccc(F)cc3)CC2)cc1 (centres undefined),inactive: -1.64%
8,O=C(NCC(c1ccc(Cl)cc1)N1CCCCC1)c1ccc(F)cc1 (centres undefined),inactive: 4.11%
9,Cc1cccc(NC(=O)C(=O)c2cc(C)n(-c3ccccc3)c2C)c1C,inactive: -0.21%
10,CCOc1cccc2cc(-c3nc4sc(C(=O)Nc5ccc(C)cc5)c(C)c4c(=O)[nH]3)c(=O)oc12,inactive: 6.73%
11,COc1ccccc1CNC(=O)c1cccn1-c1nnc(N2CCCC2)s1,inactive: 1.27%
12,Cc1cccc(NC(=O)Cn2nc(-c3ccc(Cl)cc3)c3ccccc3c2=O)c1,inactive: 3.01%
13,O=C(CSc1ccc2nc(-c3ccccc3)cn2n1)Nc1ccccc1C(F)(F)F,inactive: 0.843%
14,N#Cc1ccc(C(=O)Nc2ccc(Cl)c(-c3nc4cc(Cl)ccc4o3)c2)c(F)c1,inactive: -22.8%
15,COc1ccc(OC)c(NC(=O)CSC2=Nc3ccccc3C3=NC(CC(=O)NCc4ccco4)C(=O)N23)c1 (centres undefined),inactive: 0.651%
16,COc1ccc(NC(=O)c2sc3nc(C)c(C(=O)Nc4ccc(C)cc4C)c(-c4ccc(Cl)cc4)c3c2N)cc1,inactive: -23.5%
17,O=C(NCc1ccc2c(c1)CCN2C(=O)c1ccncc1)c1cccc(Cl)c1,inactive: 4.47%
18,COc1ccc(N2CCN(C(=O)Cn3ncc4c3-c3cc(C)ccc3OC4)CC2)cc1,inactive: 3.25%
19,COc1ccc(-c2nc3sc(CCNC(=O)C(=O)Nc4cc(C)cc(C)c4)c(C)n3n2)cc1,inactive: 0.107%
20,CCN(C(=O)c1nn(-c2ccc(OC)c(Cl)c2)c(=O)c2c1c1ccccc1n2C)c1cc(OC)ccc1OC,inactive: 1.33%
21,Cc1ccc(C(=O)NCC(c2cccs2)S(=O)(=O)c2cccs2)cc1C (centres undefined),inactive: 0.16%
22,CCOc1ccc(NC(=O)CN(C)S(=O)(=O)c2ccc3c(c2)c(=O)n(C)c(=O)n3C)cc1,inactive: -11.7%
23,COc1cc(OC)cc(C(=O)Nc2cc(-c3nc4ccccc4s3)ccc2OC)c1,inactive: -0.594%
24,CCC(=O)Nc1sc2c(c1C(=O)Nc1ccc(OC)cc1)CCC(C(C)(C)C)C2 (centres undefined),inactive: -14.6%

row,Compound,"activity change, negative = cytotoxicity"
1,CCOc1ccc(-c2cn(-c3ccc(OC)cc3)c(SCC(=O)Nc3ccccc3Cl)n2)cc1,inactive: -2.98%
2,COc1ccc(F)cc1S(=O)(=O)NCCc1csc(-c2ccc(Cl)cc2)n1,inactive: -3.71%
3,CCc1ccc(NC(=O)C2CCN(c3nnc(-n4c(C)ccc4C)s3)CC2)cc1,inactive: 0.0111%
4,Cc1ccc(C)c(-n2nnc(-c3nc(-c4ccc(Cl)cc4)no3)c2N)c1,inactive: 7.58%
5,CCCC(=O)NCCc1nc2ccccc2n1Cc1c(F)cccc1Cl,inactive: -7.56%
6,O=C(Nc1ccc(S(=O)(=O)N2CCC(c3nc4ccccc4s3)CC2)cc1)c1ccc(F)cc1,inactive: 14.3%
7,Cc1ccc(NC(=O)C2Cc3ccccc3N2C(=O)c2ccccc2)cc1Cl (centres undefined),inactive: -25.4%
8,Cc1cc(C)c(S(=O)(=O)NCCc2cc3c(C)ccc(C)c3[nH]c2=O)c(C)c1,inactive: 8.55%
9,Brc1ccc(-c2ccc(CNCCSc3nnnn3-c3ccccc3)o2)cc1,inactive: 4.97%
10,O=C(NC1CC(=O)N(c2ccccc2)C1)c1ccc(S(=O)(=O)N2CCOCC2)cc1 (centres undefined),inactive: 1.21%
11,CCOc1ccc(-n2nc(CO)c(C(=O)NCc3ccc(Cl)cc3)n2)cc1,inactive: 0.0054%
12,CC1CCN(C(=O)CSc2c3c(nc4cc(Cl)ccc24)CCCC3)CC1,inactive: -1.12%
13,Cc1ccc(-c2nnc(SCCOc3ccccc3)o2)cc1,inactive: -5.54%
14,c1ccc(-c2cn(-c3ccccc3)c3ncnc(N4CCN(c5ccccc5)CC4)c23)cc1,inactive: -5.83%
15,COc1ccc(OC)c(NC(=O)CSc2n[nH]c(-c3ccccc3Cl)n2)c1,inactive: -2.66%
16,Cc1cc(C)cc(Oc2c(C(F)(F)F)oc3c(CN4CCCC(C)C4)c(O)ccc3c2=O)c1 (centres undefined),inactive: -0.63%
17,COc1ccccc1N1CCN(c2ccc3cc(S(=O)(=O)N4CCCCC4)ccc3n2)CC1,inactive: -1.72%
18,CCOC(=O)CC(NC(=O)c1cc2cc(Cl)ccc2oc1=O)c1ccc(C)cc1 (centres undefined),inactive: 2.79%
19,O=S1(=O)c2ccccc2N(Cc2ccc(Cl)cc2F)c2ccccc21,inactive: -17.9%
20,CN(C)S(=O)(=O)c1ccc2c(c1)c(=O)c(C(=O)N1CCN(c3cccc(Cl)c3)CC1)cn2C,inactive: 1.73%
21,COc1ccc(OC)c(NC(=O)CSC2=Nc3ccccc3C3=NC(CCC(=O)NCc4ccco4)C(=O)N23)c1 (centres undefined),inactive: 8.88%
22,CCC(=O)Nc1nnc(S(=O)(=O)N(C)Cc2ccc(Cl)cc2)s1,inactive: 11.8%
23,CCOC(=O)c1ccc(NC(=O)CN(c2ccc(C)cc2)S(=O)(=O)c2ccc(OC)cc2)cc1,inactive: -1.63%
24,CCC(Sc1nc2cc(OC)c(OC)cc2c(=O)n1Cc1ccc(Cl)cc1)C(=O)NCCOC (centres undefined),inactive: 12.3%

row,Compound,"activity change, negative = cytotoxicity"
1,Cc1cc(NC(=O)c2cccnc2)cc(-c2nc3cc(Cl)ccc3o2)c1O,inactive: 0.582%
2,CCOc1ccc(-c2nc3c(c(SCC(=O)N4CCCCC4)n2)Cc2cc(C)ccc2O3)cc1,inactive: 6.61%
3,COc1ccc(N2CCN(CCCNC(=O)Nc3ccccc3Cl)CC2)cc1,inactive: -6.55%
4,COc1ccc(CCNC(=O)CN(c2ccc(C)cc2)S(=O)(=O)c2ccc(OC)cc2)cc1,inactive: 14.5%
5,N#Cc1ccccc1CSc1nnc(-c2ccccc2)o1,inactive: 13%
6,COc1cc(C(=O)Nc2ccc(OCc3cc(=O)n4ccc(C)cc4n3)cc2)cc(OC)c1OC,inactive: 0.192%
7,COc1cc(Nc2ncnc3onc(-c4ccc(Cl)cc4)c23)cc(OC)c1,inactive: -2.01%
8,Cc1ccc(-n2c(=O)c3c(C)c(C)sc3n(CC(=O)c3ccc(Cl)cc3)c2=O)cc1C,inactive: 7.72%
9,Cc1cccc(N2CCN(S(=O)(=O)c3c(C)[nH]c(=O)[nH]c3=O)CC2)c1C,inactive: 9.17%
10,O=C(Cn1c(=O)n(Cc2ccc(F)cc2)c(=O)c2sc3ccccc3c21)NCc1ccccc1Cl,inactive: -1.65%
11,Cc1ccn2c(Nc3ccc4c(c3)OCO4)c(-c3ccco3)nc2c1,inactive: -0.316%
12,N#Cc1c(C(F)(F)F)cc(-c2cccs2)nc1SCC(=O)Nc1ccc(Cl)cc1,inactive: -4.56%
13,Cc1ccc(CCNc2nc3ccccc3c3nc(-c4ccccc4)nn23)cc1,inactive: -9.76%
14,Cc1oc(-c2ccc(Cl)cc2)nc1CSc1nnc(C)n2c1cc1sccc12,inactive: 12.4%
15,O=C1CN(C(=O)c2ccccc2)C(c2ccc(F)cc2)c2cc(Br)ccc2N1 (centres undefined),inactive: -0.879%
16,CCc1cccc(C)c1NC(=O)Nc1csc2c1CCCC2,inactive: -1.69%
17,COc1ccc2sc(N(Cc3cccnc3)C(=O)c3ccco3)nc2c1,inactive: 9.33%
18,Cc1ccc(C)c(NC(=O)CSc2nncn3c2cc2sccc23)c1,inactive: 22%
19,CCOC(=O)c1ccc(N2C(=O)c3[nH]nc(-c4ccc(OC)cc4)c3C2c2ccc(C)cc2)cc1 (centres undefined),inactive: -20.1%
20,CCCNC(=O)C1CCN(c2cc(C)nc3c(-c4ccc(OC)c(OC)c4)c(C)nn23)CC1,inactive: 13.1%
21,COc1ccc(CN2C(=O)N(c3ccc(F)cc3)C(=O)C2CC(=O)Nc2ccccc2)cc1 (centres undefined),inactive: 3.19%
22,CCOc1ccc(N2CC(c3nc4ccccc4n3CCC3CCCCC3)CC2=O)cc1 (centres undefined),inactive: -28.9%
23,COC(=O)c1cc(NC(=O)Cn2ncc3c2-c2ccccc2OC3)cc(C(=O)OC)c1,inactive: 10.1%
24,COc1ccc(-c2noc(-c3ccc(NC4CCCCC4)c([N+](=O)[O-])c3)n2)cc1OC,inactive: 15.8%

row,Compound,"activity change, negative = cytotoxicity"
1,O=C(NCCc1c[nH]c2ccccc12)Nc1ccccc1C(F)(F)F,inactive: -3.76%
2,COc1ccc(NC(=O)CSc2nc3c(c(=O)[nH]2)CN(Cc2ccccc2)CC3)cc1Cl,inactive: -11.1%
3,CCc1ccc(NC(=O)Cn2c(=O)n(Cc3ccccc3)c(=O)c3oc4ccccc4c32)cc1,inactive: 5.37%
4,COC(=O)c1ccccc1NC(=O)CN1C(=O)COc2ccccc21,inactive: 9.67%
5,Cc1ncc(CO)c2c1Oc1nc(-c3ccccc3F)nc(SCC(=O)N3CCCCC3)c1C2,inactive: -13.8%
6,CCOc1cc(C(=O)Nc2c(NC)c3ccccc3oc2=O)cc(OCC)c1OCC,inactive: 8.79%
7,CCc1ccc(NC(=O)c2cnn(-c3c(C)cccc3C)c2C2CCNCC2)cc1,inactive: -28.2%
8,Cc1ccc(S(=O)(=O)c2cn(C)c3cc(N4CCCC4)c(F)cc3c2=O)c(C)c1,inactive: -9.96%
9,Cc1ccc(N2CCN(C(=O)CCc3c(C)nc4ncnn4c3C)CC2)c(C)c1,inactive: -0.0383%
10,Cc1cc(C)c(C#N)c(SCC(=O)Nc2ccccc2C#N)n1,inactive: 13.4%
11,Cc1ccc(C)c(CN2C(=O)c3ccccc3Sc3ccc(C(=O)NC4CCCC4)cc32)c1,inactive: -13%
12,Cc1ccc(-n2ncc(C(=O)N3CCc4ccccc4C3)c2C2CCN(C(=O)OC(C)(C)C)CC2)cc1C,inactive: -1.32%
13,CCn1cc(C(=O)NCCc2ccc(OC)c(OC)c2)c(=O)c2cc(S(=O)(=O)N3CCc4ccccc4C3)ccc21,inactive: -20.4%
14,COc1cccc(CNC(=O)CSc2ncc(S(=O)(=O)c3ccc(C)c(Cl)c3)c(=O)[nH]2)c1,inactive: 0.0837%
15,CC(C)(C)C(=O)OCc1cc(=O)n2nc(C3CCCCC3)sc2n1,inactive: 19.1%
16,COc1ccc(-c2nc(CN3CCC(C(=O)NCCN(CC(C)C)CC(C)C)CC3)c(C)o2)cc1OC,inactive: -2.77%
17,COc1ccccc1-c1noc(-c2ccc(NCCc3ccccc3)c([N+](=O)[O-])c2)n1,inactive: -2.63%
18,CNC(=O)c1ccc(NC(=O)c2nsc3ccccc23)cc1,inactive: -24.2%
19,CCOC(=O)c1ccc(NC(=O)Cn2nnc(-c3ccc(C(F)(F)F)cc3)n2)cc1,inactive: 20.1%
20,COc1ccc2c(c1)c(N1CCCC1=O)c(C(=O)Nc1ccc(Cl)cc1C)n2C,inactive: -10.2%
21,CCN1Cc2cccc(C(=O)Nc3ccc(F)cc3)c2C1=O,inactive: 9.47%
22,CCOC(=O)c1ccc(OCC2c3cc(OC)c(OC)cc3CCN2C(=O)Cc2ccc(OC)c(OC)c2)cc1 (centres undefined),inactive: -3.67%
